Measured values reported in the supplement of paper PMC7826260.
Some of the results follow. The data describe in vitro nicking of single-stranded DNA by Rep domains (3 µM enzyme, 1 h, 37 °C); shown is the middle of each 90-letter strand. Uncut reads are compared with the no-enzyme pool on a log2 scale; strong cutting gives strongly negative numbers. There is no active / inactive call. Counts are relative to all reads; uncut strands gain when others are lost, and binding without cutting may add a little.

tested on: T1, Rep nickase domain of tomato golden mosaic virus; assay: uncleaved DNA left, log2 of reads against the no-enzyme library (log2 ratio); higher = less cleavage (more negative = more Rep cleavage of the k-mer); sequences stand for … in CTCGTCCG…ACCGGAGA
T1 sequence (residues 1-124 of Rep, tag left off): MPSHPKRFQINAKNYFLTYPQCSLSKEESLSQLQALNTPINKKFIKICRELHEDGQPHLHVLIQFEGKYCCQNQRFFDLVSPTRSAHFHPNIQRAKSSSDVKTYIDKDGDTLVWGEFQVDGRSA
Experimental: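 A pool of 90-nt single-stranded DNAs with seven random bases just before the constant AC of the nick site (name = the seven bases) was cut by 3 µM recombinant His6-SUMO-tagged Rep nickase domain (300 nM DNA, 50 mM HEPES pH 8.0, 50 mM NaCl, 1 mM MnCl2, 1 h, 37 °C, three replicates). Uncut DNA was amplified and sequenced.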

| Sequence | uncleaved DNA left (log2) |
| --- | --- |
| GCACCCT | -0.0558 |
| CATATAT | 0.169 |
| GTTCTCC | 0.0327 |
| GTAGGTA | 0.172 |
| CACATGT | -0.0537 |
| CTATGTC | -0.179 |
| CTCAGCG | -0.213 |
| TCTGCGC | -0.267 |
| CATCTGC | -0.168 |
| GATAATG | 0.0946 |
| TAGCAAC | -0.0854 |
| GGCAGCA | 0.0781 |
| TATCAAC | -0.074 |
| ACCATTT | 0.0331 |
| CTCACTG | 0.0468 |
| TAATTTG | -0.0581 |
| CGGTACC | -0.0329 |
| TGGCACA | -0.0805 |
| CCTTTCG | -0.123 |
| ATGTATA | -0.16 |

| Sequence | uncleaved DNA left (log2) |
| --- | --- |
| AATACGT | -0.012 |
| ATGTCTT | -0.0794 |
| GACAGAC | 0.0638 |
| CGTGCTA | 0.108 |
| AGGGCTT | 0.011 |
| TGTCTAG | -0.0751 |
| TCTAGAA | 0.0698 |
| GGGGCGT | 0.172 |
| CTTAACG | 0.125 |
| TCGCATA | -0.118 |
| CCCCCAG | 0.0211 |
| ATGTCAG | 0.000657 |
| ACAAGGC | 0.0972 |
| TGACGTA | -0.00483 |
| GTCAGTT | -0.0125 |
| AGCCTAG | 0.0151 |
| AGTCATT | -0.0387 |
| CGACGTT | -0.0323 |
| GCGGGGA | -0.0303 |
| ACCCAGA | 0.152 |
